# Reference: PubChem BioAssay (Tox21)
# The shares of active, inactive and inconclusive entries below differ from those in the screen. For some assays here: Where the call is inconclusive, the potency comes from a doubtful curve fit. Calls of active or inactive are those of the source. Unless noted, calls come from the whole dose curve; as a rule, active = well fitted curve in the direction sought with a large enough effect in the repeat runs; inconclusive = weak or mixed curves; inactive = no such curve, though single readings can be large; an effect the other way counts as inactive or inconclusive.
# How the values were obtained:
# [1] = qHTS assay to identify small molecule agonists of the AP-1 signaling pathway (AID 1159526; calls by dose curve; note: % is set by controls: 0 for no effect and ±100 for the full control effect); conditions: ME-180 (cervical carcinoma) AP-1-bla reporter, beta-lactamase FRET ratio, 5 h; activation: at 76.8 µM (top of the series) unless noted
# [2] = target: Retinoic acid receptor RXR-alpha (Homo sapiens) (UniProt P19793); assay: qHTS assay to identify small molecule agonists of the RXR signaling pathway (AID 1159527; calls by dose curve; note: nearly all actives have a fitted effect of over 35% in size; note: potency is the fitted concentration of half-maximal effect); conditions: HEK293T RXRa-UAS-bla, beta-lactamase ratio, 16 h; activation: at 76.8 µM (top of the series) unless noted
# Chain of UniProt P19793 (P19793 whole entry, looked up): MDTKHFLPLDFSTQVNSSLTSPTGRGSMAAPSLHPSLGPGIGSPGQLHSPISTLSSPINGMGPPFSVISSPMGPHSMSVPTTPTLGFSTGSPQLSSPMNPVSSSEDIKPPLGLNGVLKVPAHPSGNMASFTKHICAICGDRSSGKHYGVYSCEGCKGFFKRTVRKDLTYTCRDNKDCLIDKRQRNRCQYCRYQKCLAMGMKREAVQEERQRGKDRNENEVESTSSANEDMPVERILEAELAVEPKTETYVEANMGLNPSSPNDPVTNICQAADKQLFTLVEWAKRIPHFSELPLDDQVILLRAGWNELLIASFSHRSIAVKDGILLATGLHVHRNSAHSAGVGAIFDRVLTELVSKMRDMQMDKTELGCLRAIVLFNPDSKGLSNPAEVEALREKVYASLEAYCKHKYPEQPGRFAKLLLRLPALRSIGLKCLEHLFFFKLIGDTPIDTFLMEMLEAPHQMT
# Procedure, shortened: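 16 hr incubation of compound-treated RXR-alpha-UAS-bla HEK 293T cells (2% charcoal-stripped FBS, 37 C) preceded a 2 hr room-temperature LiveBLAzer FRET substrate step and blue/green fluorescence measurement.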
# [3] = target: Progesterone receptor (Homo sapiens) (UniProt P06401); assay: qHTS assay to identify small molecule antagonists of the progesterone receptor (PR) signaling pathway (AID 1346795; active = well fitted inhibition curve with a large enough effect in the signal ratio in the repeat runs, not every such curve was filed as active; inconclusive = weak or mixed curves; the % refers to the signal ratio; note: potency is the fitted concentration of half-maximal effect); conditions: PR-UAS-bla HEK293T, beta-lactamase FRET ratio, 16 h; activity change, negative = inhibition: at 92.4 µM (top of the series) unless noted
# Chain of UniProt P06401 (P06401 whole entry, looked up): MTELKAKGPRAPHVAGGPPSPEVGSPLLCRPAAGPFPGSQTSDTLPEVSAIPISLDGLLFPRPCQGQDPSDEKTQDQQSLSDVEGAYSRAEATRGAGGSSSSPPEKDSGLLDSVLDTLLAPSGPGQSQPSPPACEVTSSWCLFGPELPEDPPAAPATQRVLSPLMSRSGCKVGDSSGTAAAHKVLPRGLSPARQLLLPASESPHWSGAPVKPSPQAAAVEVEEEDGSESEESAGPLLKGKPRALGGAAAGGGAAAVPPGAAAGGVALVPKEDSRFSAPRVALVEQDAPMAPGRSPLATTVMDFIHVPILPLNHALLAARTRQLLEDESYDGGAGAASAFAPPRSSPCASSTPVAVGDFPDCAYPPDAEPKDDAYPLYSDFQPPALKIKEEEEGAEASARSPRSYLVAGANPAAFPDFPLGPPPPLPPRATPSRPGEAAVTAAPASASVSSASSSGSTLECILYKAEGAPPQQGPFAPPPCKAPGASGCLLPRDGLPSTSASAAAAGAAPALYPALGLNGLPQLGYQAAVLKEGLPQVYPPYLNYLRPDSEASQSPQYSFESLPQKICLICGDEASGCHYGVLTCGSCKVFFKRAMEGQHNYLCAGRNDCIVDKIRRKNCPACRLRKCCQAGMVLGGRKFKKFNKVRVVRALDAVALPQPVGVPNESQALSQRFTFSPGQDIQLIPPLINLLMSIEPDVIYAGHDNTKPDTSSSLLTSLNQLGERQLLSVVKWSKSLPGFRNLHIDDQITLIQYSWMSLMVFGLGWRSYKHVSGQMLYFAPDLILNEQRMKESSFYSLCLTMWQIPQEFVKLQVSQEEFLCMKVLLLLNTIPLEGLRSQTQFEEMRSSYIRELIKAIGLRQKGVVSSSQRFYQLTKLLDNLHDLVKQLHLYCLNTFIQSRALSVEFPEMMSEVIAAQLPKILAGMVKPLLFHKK
# Procedure, shortened: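 In HEK293T cells bearing the PR-UAS-bla reporter, compound effects on promegestone-driven (1 nM) beta-lactamase expression are assessed after 16 hr using a fluorescent FRET substrate incubated 2 hr at room temperature.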
# [4] = target: Cytochrome P450 2D6 (Homo sapiens) (UniProt P10635); assay: Cytochrome P450 Family 2 Subfamily D Member 6 (CYP2D6) small molecule antagonists: luciferase reporter qHTS assay (AID 1671196); note: potency is the fitted concentration of half-maximal effect; nearly all actives have a fitted effect of over 50% in size
# Procedure, shortened: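 Cell-free P450-Glo system: CYP2D6 with proluciferin substrate was pre-incubated with compound for 10 min, then reacted with NADPH regeneration for 1 h at room temperature. Luciferin product was detected after 20 min, and data were reported as relative luminescence units.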
# [5] = target: Cytochrome P450 1A2 (Homo sapiens) (UniProt P05177); assay: Cytochrome P450 Family 1 Subfamily A Member 2 (CYP1A2) small molecule antagonists: luciferase reporter qHTS assay (AID 1671199); note: potency is the fitted concentration of half-maximal effect; nearly all actives have a fitted effect of over 50% in size
# Chain of UniProt P05177 (P05177 whole entry, looked up): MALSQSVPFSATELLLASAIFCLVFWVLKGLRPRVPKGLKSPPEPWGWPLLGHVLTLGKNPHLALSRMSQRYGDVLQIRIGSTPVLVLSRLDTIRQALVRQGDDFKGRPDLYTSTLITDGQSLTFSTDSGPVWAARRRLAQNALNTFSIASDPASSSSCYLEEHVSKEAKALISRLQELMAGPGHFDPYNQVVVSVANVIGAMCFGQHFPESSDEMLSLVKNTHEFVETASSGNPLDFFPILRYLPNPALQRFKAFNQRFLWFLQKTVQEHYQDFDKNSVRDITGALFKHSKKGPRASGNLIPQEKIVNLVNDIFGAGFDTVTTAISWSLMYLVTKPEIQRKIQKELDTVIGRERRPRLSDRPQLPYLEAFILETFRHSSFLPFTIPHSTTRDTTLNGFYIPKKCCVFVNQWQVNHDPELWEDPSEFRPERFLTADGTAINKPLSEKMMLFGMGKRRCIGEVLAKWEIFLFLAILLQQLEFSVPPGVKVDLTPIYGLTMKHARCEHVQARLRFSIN
# Procedure, shortened: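 P450-Glo CYP1A2 enzyme–proluciferin substrate mix with compound 10 min at room temperature, then NADPH regeneration 1 h at room temperature. Luciferin detection reagent added, luminescence read after 20 min; furafylline positive control.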
# [6] = qHTS assay for small molecule disruptors of the mitochondrial membrane potential (AID 720635); conditions: HepG2 mitochondrial membrane potential, Mito-MPS dye ratio; ratio activity, negative = MMP loss: at 83.2 µM (top of the series) unless noted; note: potency is the fitted concentration of half-maximal effect
# Procedure, shortened: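 Mitochondrial membrane potential tracked with Mito-MPS dye, red aggregates (ex 540/em 590 nm) against green monomers (ex 490/em 535 nm). Compound treatment 1 hr at 37C, dye 30 min in HepG2.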
# [7] = qHTS assay for identifying genotoxic compounds that show differential cytotoxicity against isogenic chicken DT40 cell lines with known DNA damage response pathways - Rev3 mutant cell line (AID 743014); conditions: chicken DT40 Rev3-/- viability, CellTiter-Glo, 40 h; activity, negative = cytotoxicity: at 68.4 µM (top of the series); note: nearly all actives have a fitted effect of over 55% in size; note: potency is the fitted concentration of half-maximal effect
# [8] = qHTS assay to identify small molecule antagonists of the thyroid receptor (TR) signaling pathway - cell viability counter screen (AID 743064); conditions: GH3.TRE-Luc viability, CellTiter-Fluor, 24 h; activity change, negative = cytotoxic: at 70.3 µM (top of the series) unless noted; note: nearly all actives have a fitted effect of over 50% in size; note: potency is the fitted concentration of half-maximal effect
# Procedure, shortened: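 In rat pituitary GH3.TRE-Luc reporter cells co-exposed to compound and 1 nM T3 for 23.5 h, cytotoxicity was assessed with CellTiter-Fluor in the same wells, read by fluorescence.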
# [9] = target: Peroxisome proliferator-activated receptor gamma (Homo sapiens) (UniProt P37231); assay: qHTS assay to identify small molecule antagonists of the peroxisome proliferator-activated receptor gamma (PPARg) signaling pathway (AID 743191; calls by dose curve; note: nearly all actives have a fitted effect of over 30% in size; note: potency is the fitted concentration of half-maximal effect); conditions: HEK293H PPARg-UAS-bla, beta-lactamase ratio, antagonist, 17 h; ratio activity, negative = inhibition: at 62.6 µM (top of the series) unless noted
# Chain of UniProt P37231 (P37231 whole entry, looked up): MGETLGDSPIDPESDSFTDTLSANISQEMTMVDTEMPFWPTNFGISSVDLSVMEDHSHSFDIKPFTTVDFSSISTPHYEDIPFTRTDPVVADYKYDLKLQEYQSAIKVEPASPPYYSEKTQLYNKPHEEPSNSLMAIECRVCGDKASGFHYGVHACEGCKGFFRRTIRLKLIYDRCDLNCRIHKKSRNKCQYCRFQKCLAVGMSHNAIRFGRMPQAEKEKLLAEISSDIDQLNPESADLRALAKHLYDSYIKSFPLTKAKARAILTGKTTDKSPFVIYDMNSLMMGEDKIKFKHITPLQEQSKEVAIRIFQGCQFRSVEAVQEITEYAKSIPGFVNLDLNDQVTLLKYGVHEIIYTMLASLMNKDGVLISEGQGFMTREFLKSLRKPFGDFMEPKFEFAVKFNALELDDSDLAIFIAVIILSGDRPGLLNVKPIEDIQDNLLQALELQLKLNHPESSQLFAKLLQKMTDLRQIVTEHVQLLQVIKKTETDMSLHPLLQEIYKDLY
# Procedure, shortened: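 Beta-lactamase reporter under UAS control in HEK293H PPARg-bla cells; compound treatment 17 h at 37C. Read-out: fluorescence intensity after 1 h room-temperature incubation with LiveBLAzer B/G FRET substrate.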
# [10] = qHTS assay for small molecule agonists of the antioxidant response element (ARE) signaling pathway (AID 743202; active = well fitted activation curve with a large enough effect in the signal ratio in the repeat runs, not every such curve was filed as active; inconclusive = weak or mixed curves, or effect the other way; inactive = no such curve, though single readings can be large or run the other way; the % refers to the signal ratio; note: potency is the fitted concentration of half-maximal effect); conditions: HepG2 ARE-bla reporter, beta-lactamase FRET, 16 h; activation: at 73.3 µM (top of the series) unless noted
# Procedure, shortened: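 An ARE-responsive beta-lactamase gene stably integrated in HepG2 cells serves as reporter. After 5 h plating and 16 h compound incubation at 37 C, fluorescence of the B/G FRET substrate was measured.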
# [11] = qHTS assay to identify small molecule agonists of the progesterone receptor (PR) signaling pathway - cell viability counter screen (AID 1346799; calls by dose curve; note: % is set by controls: 0 for no effect and ±100 for the full control effect; nearly all actives have a fitted effect of over 45% in size)
# Procedure, shortened: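 Here, 3,000 PR-UAS-bla HEK293T cells per well were treated with compounds for 16 hr after a 6 hr preincubation at 37C and 5% CO2; cell viability is the CellTiter-Glo luminescence signal.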
# [12] = target: Cytochrome P450 2C9 (Homo sapiens) (UniProt P11712); assay: Cytochrome P450 Family 2 Subfamily C Member 9 (CYP2C9) small molecule antagonists: luciferase reporter qHTS assay (AID 1671198); note: nearly all actives have a fitted effect of over 50% in size; note: potency is the fitted concentration of half-maximal effect
# Chain of UniProt P11712 (P11712 whole entry, looked up): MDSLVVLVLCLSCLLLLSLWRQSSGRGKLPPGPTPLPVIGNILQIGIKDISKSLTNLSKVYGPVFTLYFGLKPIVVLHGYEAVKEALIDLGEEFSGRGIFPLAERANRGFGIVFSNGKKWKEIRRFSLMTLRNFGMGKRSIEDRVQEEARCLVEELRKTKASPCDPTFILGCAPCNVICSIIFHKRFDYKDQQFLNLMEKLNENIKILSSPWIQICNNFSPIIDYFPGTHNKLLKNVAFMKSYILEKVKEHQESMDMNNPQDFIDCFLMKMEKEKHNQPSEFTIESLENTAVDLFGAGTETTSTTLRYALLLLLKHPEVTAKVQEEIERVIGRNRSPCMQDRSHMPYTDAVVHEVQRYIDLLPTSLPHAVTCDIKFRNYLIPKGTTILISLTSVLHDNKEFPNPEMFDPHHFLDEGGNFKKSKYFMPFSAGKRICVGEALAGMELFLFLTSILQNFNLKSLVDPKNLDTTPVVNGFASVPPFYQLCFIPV
# Procedure, shortened: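 Enzyme-substrate mix preincubated with compound 10 min at room temperature; reaction started with NADPH regeneration solution, 1 h 37C. Luminescent luciferin product read after 20 min detection reagent.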
# [13] = target: Glucocorticoid receptor (Homo sapiens) (UniProt P04150); assay: qHTS assay to identify small molecule antagonists of the glucocorticoid receptor (GR) signaling pathway (AID 720692; active = well fitted inhibition curve with a large enough effect in the signal ratio in the repeat runs, not every such curve was filed as active; inconclusive = weak or mixed curves, or effect the other way; inactive = no such curve, though single readings can be large or run the other way; the % refers to the signal ratio; note: potency is the fitted concentration of half-maximal effect); conditions: GR-bla HeLa, beta-lactamase FRET ratio, dexamethasone-stimulated, 18 h; activity change, negative = inhibition: at 58.5 µM (top of the series) unless noted
# Chain of UniProt P04150 (P04150 whole entry, looked up): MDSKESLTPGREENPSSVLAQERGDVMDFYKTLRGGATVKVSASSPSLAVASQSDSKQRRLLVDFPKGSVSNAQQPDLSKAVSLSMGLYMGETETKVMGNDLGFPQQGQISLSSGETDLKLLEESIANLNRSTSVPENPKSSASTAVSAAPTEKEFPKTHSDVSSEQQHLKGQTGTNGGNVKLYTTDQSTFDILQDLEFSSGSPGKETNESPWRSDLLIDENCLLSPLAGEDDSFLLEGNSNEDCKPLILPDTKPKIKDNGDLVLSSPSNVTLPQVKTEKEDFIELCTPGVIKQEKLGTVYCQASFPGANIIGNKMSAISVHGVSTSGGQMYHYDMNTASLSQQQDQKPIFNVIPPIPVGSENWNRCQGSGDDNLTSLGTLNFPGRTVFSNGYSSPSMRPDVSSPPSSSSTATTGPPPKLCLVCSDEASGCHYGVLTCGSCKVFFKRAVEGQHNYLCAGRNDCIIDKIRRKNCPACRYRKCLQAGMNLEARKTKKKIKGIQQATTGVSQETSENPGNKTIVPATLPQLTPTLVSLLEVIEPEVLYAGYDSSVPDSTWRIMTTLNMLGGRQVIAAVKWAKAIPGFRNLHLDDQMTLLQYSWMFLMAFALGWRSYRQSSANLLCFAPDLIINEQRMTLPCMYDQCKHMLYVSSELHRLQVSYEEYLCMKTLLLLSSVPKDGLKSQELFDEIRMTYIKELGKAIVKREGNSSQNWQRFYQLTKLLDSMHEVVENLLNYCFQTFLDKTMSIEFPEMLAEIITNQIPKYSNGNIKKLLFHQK
# Procedure, shortened: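 GR-bla HeLa cells carrying a GRE-driven beta-lactamase reporter received compound after 4 h plating, then dexamethasone (5 nM final). After 18 h at 37C, the FRET substrate was loaded for 2 h at room temperature and fluorescence read.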
# [14] = qHTS assay to identify small molecule agonists of H2AX (AID 1224845; active = well fitted activation curve with a large enough effect in the signal ratio in the repeat runs, not every such curve was filed as active; inconclusive = weak or mixed curves; the % refers to the signal ratio; note: % is set by controls: 0 for no effect and ±100 for the full control effect); conditions: CHO-K1 phospho-H2AX Ser139 HTRF, 3 h; activation (H2AX phosphorylation): at 154 µM (top of the series) unless noted
# Procedure, shortened: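 Phospho-H2AX Ser139 measured by HTRF (ex 320 nm; em 665 and 620 nm) after 24 hr antibody incubation. Compounds, 15 concentrations, 0.76% DMSO, were applied to CHO-K1 cells for 3hr at 37C before lysis.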
# [15] = target: Vitamin D3 receptor (Homo sapiens) (UniProt P11473); assay: qHTS assay to identify small molecule antagonists of the vitamin D receptor (VDR) signaling pathway (AID 743223; active = well fitted inhibition curve with a large enough effect in the signal ratio in the repeat runs, not every such curve was filed as active; inconclusive = weak or mixed curves, or effect the other way; inactive = no such curve, though single readings can be large or run the other way; the % refers to the signal ratio; note: % is set by controls: 0 for no effect and ±100 for the full control effect); conditions: VDR-UAS-bla HEK293T, beta-lactamase FRET ratio, 16 h; activity change, negative = inhibition: at 61 µM (top of the series) unless noted
# Chain of UniProt P11473 (P11473 whole entry, looked up): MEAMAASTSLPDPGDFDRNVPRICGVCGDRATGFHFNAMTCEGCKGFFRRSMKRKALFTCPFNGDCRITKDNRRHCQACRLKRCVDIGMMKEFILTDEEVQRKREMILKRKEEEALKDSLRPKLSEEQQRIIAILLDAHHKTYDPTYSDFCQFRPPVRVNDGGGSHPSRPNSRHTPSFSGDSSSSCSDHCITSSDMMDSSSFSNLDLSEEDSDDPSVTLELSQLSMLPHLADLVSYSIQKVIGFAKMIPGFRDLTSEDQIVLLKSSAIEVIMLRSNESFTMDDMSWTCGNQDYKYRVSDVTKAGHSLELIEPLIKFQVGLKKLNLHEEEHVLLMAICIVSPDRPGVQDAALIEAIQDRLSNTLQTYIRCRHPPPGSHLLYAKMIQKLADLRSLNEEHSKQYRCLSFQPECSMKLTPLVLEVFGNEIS
# Procedure, shortened: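 Reporter line VDR-bla; stimulus 1alpha,25-(OH)2 vitamin D3, 3 nM final; compound co-addition, 16 h 37C/5% CO2; LiveBLAzer B/G substrate 2 h RT; fluorescence intensity.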
# [16] = target: Estrogen receptor beta (Homo sapiens) (UniProt Q92731); assay: qHTS assay to identify small molecule antagonists of the estrogen receptor beta (ER-beta) signaling pathway (AID 1259378; active = well fitted inhibition curve with a large enough effect in the signal ratio in the repeat runs, not every such curve was filed as active; inconclusive = weak or mixed curves, or effect the other way; inactive = no such curve, though single readings can be large or run the other way; the % refers to the signal ratio; note: % is set by controls: 0 for no effect and ±100 for the full control effect); conditions: ER-beta-UAS-bla HEK293T, beta-lactamase FRET ratio, 16 h; activity, negative = inhibition: at 92.4 µM (top of the series) unless noted
# Chain of UniProt Q92731 (Q92731 whole entry, looked up): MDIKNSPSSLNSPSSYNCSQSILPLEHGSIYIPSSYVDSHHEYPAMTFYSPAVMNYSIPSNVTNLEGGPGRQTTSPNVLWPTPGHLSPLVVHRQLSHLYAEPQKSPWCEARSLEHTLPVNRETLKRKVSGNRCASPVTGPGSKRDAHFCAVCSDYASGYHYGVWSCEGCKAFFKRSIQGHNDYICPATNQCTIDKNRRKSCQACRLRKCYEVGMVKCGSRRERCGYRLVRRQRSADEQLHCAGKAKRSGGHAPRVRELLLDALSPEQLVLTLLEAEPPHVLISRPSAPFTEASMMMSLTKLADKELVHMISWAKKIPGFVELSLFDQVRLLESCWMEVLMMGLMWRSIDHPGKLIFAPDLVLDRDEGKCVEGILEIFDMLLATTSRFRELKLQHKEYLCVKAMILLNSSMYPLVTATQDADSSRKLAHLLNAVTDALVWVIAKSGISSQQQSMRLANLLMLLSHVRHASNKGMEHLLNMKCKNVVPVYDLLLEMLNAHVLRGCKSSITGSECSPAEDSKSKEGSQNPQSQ
# Procedure, shortened: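 Antagonist mode: compounds added to beta-lactamase reporter HEK293T ER-beta-UAS cells stimulated with E2 (1nM final), 16 hr at 37C. LiveBLAzer B/G FRET substrate, 2 hours room temperature, fluorescence read-out.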
# [17] = qHTS assay to identify small molecule agonists of the estrogen receptor beta (ER-beta) signaling pathway - cell viability counter screen (AID 1259380); note: % is set by controls: 0 for no effect and ±100 for the full control effect; nearly all actives have a fitted effect of over 30% in size
# Procedure, shortened: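 ER-beta-UAS-bla HEK293T cells in medium with 2% charcoal-stripped FBS, pre-incubated 6 hr, then treated 16 hr at 37C. Cytotoxicity read in the same wells by CellTiter-Glo luminescence after 30 min at room temperature.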
# [18] = qHTS assay to identify small molecule antagonists of the sonic hedgehog signaling (Shh) pathway (AID 1259369; calls by dose curve; note: nearly all actives have a fitted effect of over 45% in size; note: potency is the fitted concentration of half-maximal effect)
# Procedure, shortened: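 NIH/3T3-derived Gli1-Luc reporter cells plated 4 h, dosed with compound, then stimulated with conditioned medium for 24 h at 37 C. Firefly luciferase luminescence read after 30 min with detection reagent at room temperature.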
# [19] = qHTS assay to identify small molecule antagonists of the progesterone receptor (PR) signaling pathway - cell viability counter screen (AID 1346798)
# Procedure, shortened: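 Following a 4 hr attachment, PR-UAS-bla HEK293T cells in charcoal-stripped FBS medium were exposed to compounds with R5020 for 16 hr; CellTiter-Glo was added and luminescence read after 30 min at room temperature.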
# Tags give direction and shape of the fitted curve or compound fluorescence and quenching.
smiles,measurement,setting,value
Nc1ccc([N+](=O)[O-])cc1Cl,Potency,[1],inactive
same,Potency,[2],inactive
same,Potency,[3],active: 54.5 µM
same,Potency,[4],inconclusive: 79.6 µM [inhibitor]
same,Potency,[5],active: 25.2 µM
Clc1cc(Cl)c(-c2cc(Cl)c(Cl)cc2Cl)cc1Cl,Potency,[6],"inconclusive: 12.9 µM [inhibitor, partial curve]"
same,Potency,[7],inactive
same,Potency,[8],"inconclusive: 32.4 µM [cytotoxic, single point]"
same,Potency,[9],inconclusive: 25.9 µM [activator]
same,Potency,[10],inactive
same,activation,[1],inconclusive: 3.57% [at 35.3 µM]
same,activation,[2],inconclusive: -22.8% [at 35.3 µM]
same,Potency,[3],active: 10.2 µM
same,Potency,[11],inactive
same,Potency,[12],inactive
same,Potency,[5],"inconclusive: 0.751 µM [inhibitor, single point]"
C#CCOC(=O)/C=C(C)/C=C/CC(C)CCCC(C)C (stereo unspecified),Potency,[13],"inconclusive: 8.71 µM [inhibitor, partial curve]"
same,Potency,[1],inactive
same,Potency,[2],active: 49 µM
same,Potency,[14],inactive
same,Potency,[11],inactive
same,Potency,[12],active: 31.7 µM
same,Potency,[5],active: 28.3 µM
CC1CCCCC1NC(=O)Nc1ccccc1 (stereo unspecified),Potency,[6],active: 21.7 µM
same,Potency,[13],inactive
same,Potency,[7],"inconclusive: 7.7 µM [cytotoxic, partial curve, poor fit]"
same,Potency,[8],inactive
same,"ratio activity, negative = inhibition",[9],inconclusive: -22.3%
same,Potency,[15],inactive
same,Potency,[1],inactive
same,Potency,[2],"inconclusive: 1.55 µM [inhibitor, partial curve, poor fit]"
same,Potency,[16],inactive
same,Potency,[17],inactive
same,Potency,[3],"inconclusive: 30.6 µM [falling, partial curve]"
same,Potency,[4],active: 71 µM
C[C@]12CC[C@H]3[C@@H](CCC4=CC(=O)CC[C@@]43C)[C@@H]1CC[C@@H]2C(=O)O,"ratio activity, negative = inhibition",[9],inconclusive: 19.8%
same,Potency,[10],"inconclusive: 33.5 µM [rising, partial curve, poor fit]"
same,"activity change, negative = inhibition",[15],inconclusive: 12.7%
same,Potency,[1],inactive
same,Potency,[2],"inconclusive: 23.9 µM [fluorescent, partial curve, poor fit]"
same,Potency,[14],inactive
same,"activity, negative = inhibition",[16],inconclusive: 18.8% [at 42.5 µM]
same,Potency,[3],"inconclusive: 29.8 µM [rising, single point]"
same,Potency,[12],"inconclusive: 19.5 µM [inhibitor, partial curve]"
COc1cc(CC(C)N)c(OC)cc1Br (stereo unspecified),Potency,[6],"inconclusive: 22.4 µM [activator, full curve, poor fit]"
same,Potency,[7],"inconclusive: 26.6 µM [cytotoxic, partial curve]"
same,"ratio activity, negative = inhibition",[9],inconclusive: -9.37% [at 81.1 µM]
same,Potency,[10],inconclusive: 35.5 µM
same,Potency,[1],inactive
same,activation,[2],inconclusive: -25.1%
same,Potency,[18],active: 15.9 µM
same,Potency,[3],"inconclusive: 70.9 µM [falling, partial curve]"
same,Potency,[19],"inconclusive: 35.5 µM [cytotoxic, partial curve]"
CCNc1nc(NC(C)C(C)C)nc(SC)n1 (stereo unspecified),Potency,[6],active: 7.7 µM
same,Potency,[7],active: 34.4 µM
same,Potency,[10],inactive
same,Potency,[1],inactive
same,Potency,[2],inactive
same,Potency,[12],"inconclusive: 50.2 µM [inhibitor, partial curve, poor fit]"
CC(C=O)Cc1ccc2c(c1)OCO2 (stereo unspecified),"ratio activity, negative = MMP loss",[6],inconclusive: 5.42%
same,"activity change, negative = inhibition",[13],inconclusive: 28.7%
same,Potency,[7],"inconclusive: 27.3 µM [cytotoxic, partial curve]"
same,"ratio activity, negative = inhibition",[9],inconclusive: 16.3%
same,"activity change, negative = inhibition",[15],inconclusive: 31%
same,activation,[1],inconclusive: -21.4%
same,Potency,[2],inactive
same,Potency,[18],inactive
same,Potency,[16],inactive
same,Potency,[17],inactive
same,Potency,[12],active: 15.9 µM
same,Potency,[5],active: 6.33 µM
